# Laboratory results from the supplement of paper PMC3334620.
# Whole data set: some 33,000 sequences, median “E-score (-0.5 to 0.5)” near -0.011, cut for the highest 2% near 0.28. This is one part of the list.
# Biological target: T1, Gcr1 (UniProt P07261)
# T1 sequence: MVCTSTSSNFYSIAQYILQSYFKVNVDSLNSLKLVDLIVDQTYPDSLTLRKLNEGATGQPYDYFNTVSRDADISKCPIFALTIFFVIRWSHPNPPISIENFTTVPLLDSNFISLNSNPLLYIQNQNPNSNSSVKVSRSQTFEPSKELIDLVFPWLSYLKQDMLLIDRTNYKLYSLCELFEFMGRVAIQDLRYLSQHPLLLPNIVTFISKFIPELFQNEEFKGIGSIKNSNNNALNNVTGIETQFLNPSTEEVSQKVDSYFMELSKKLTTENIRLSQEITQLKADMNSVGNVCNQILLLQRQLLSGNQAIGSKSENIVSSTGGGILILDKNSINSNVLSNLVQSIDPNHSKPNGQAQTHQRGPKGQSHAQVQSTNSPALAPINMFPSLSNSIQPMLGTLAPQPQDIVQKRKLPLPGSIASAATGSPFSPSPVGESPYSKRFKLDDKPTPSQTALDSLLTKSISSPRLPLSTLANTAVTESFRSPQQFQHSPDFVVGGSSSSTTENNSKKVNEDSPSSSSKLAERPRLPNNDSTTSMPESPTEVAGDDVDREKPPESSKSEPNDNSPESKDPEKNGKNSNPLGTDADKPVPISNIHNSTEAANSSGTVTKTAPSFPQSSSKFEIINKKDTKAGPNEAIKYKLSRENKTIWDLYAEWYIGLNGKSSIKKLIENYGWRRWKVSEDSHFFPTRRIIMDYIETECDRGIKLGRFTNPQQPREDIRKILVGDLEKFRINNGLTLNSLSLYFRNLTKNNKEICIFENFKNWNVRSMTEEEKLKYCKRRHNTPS
# Experiment: PBM E-score (8-mer binding enrichment) (E-score (-0.5 to 0.5)); higher = stronger / more preferred TF binding; most listed sequences are background and not binding sites
# Details: protein concentration: 100 nM; construct: GST-full length
# Summary of the method: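 Detection of bound protein used fluorescent anti-GST, with scans normalised by masliner. The proteins were GST-tagged yeast transcription factors applied at about 100-200 nM to universal all-10-mer Agilent arrays made double-stranded by primer extension. Each ungapped eight-base word, pooled with its reverse complement, was scored with an E-score from the Universal PBM Analysis Suite.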
row,Sequence,PBM E-score
1,CCCTGAAC,0.0468
2,AACAAAAG,-0.054
3,GAGCTAGA,0.00673
4,CATCCAGC,0.198
5,CCATGGCC,-0.261
6,AGGCGTCC,0.387
7,GGCGGAAC,-0.096
8,ATAGCGCA,0.0425
9,CGTGTATA,0.0972
10,TACGATCA,-0.049
11,GCGCAAGA,0.123
12,ACAATCAT,-0.0418
13,AAGCGAAG,0.0415
14,ATGTCTTG,-0.339
15,AGTGAATG,-0.0265
16,CACCGTCA,-0.0141
17,GCGCGCTA,0.101
18,GTATCTCA,0.194
19,AGATTGCG,-0.0855
20,AAGGTCGA,-0.0525
21,GGTAGTAA,0.00084
22,GGTCGAAC,-0.163

row,Sequence,PBM E-score
1,CCGGGGCG,0.0378
2,CAATCGTG,-0.0722
3,CATCCACG,0.0306
4,ATTCTTTA,0.0537
5,GCCATGCA,-0.175
6,GCCGTAAA,0.141
7,CCACAACG,0.00921
8,TATCCGGA,0.161
9,AGATGACA,0.0907
10,TCATCTAA,-0.0664
11,GGAGAAAA,-0.127
12,AGTCATAA,0.0165
13,CTGGGAAA,-0.121
14,CAGAGCTG,-0.23
15,AATCAGAC,0.0464
16,TCAGAAGA,0.0181
17,ATGGCTGC,0.168
18,GTCTAGTA,-0.0488
19,ACTAGTTA,0.211
20,ACGGAACG,0.082
21,CCTAATAC,-0.0055
22,ACGACCGC,-0.124

row,Sequence,PBM E-score
1,CAGTGGCC,-0.0713
2,CCCCTTGC,-0.106
3,CTCCTGTA,0.236
4,CAAATAGC,-0.214
5,CGCAAACA,-0.19
6,CTTATAAA,0.291
7,ACGCCTGG,-0.0153
8,GTTTTTTA,0.029
9,CCATATCA,0.0892
10,CGACCCGC,-0.304
11,AGCTTCAT,0.0447
12,GTACCACA,0.157
13,CGGGCAAC,0.0558
14,CATAATAG,0.16
15,AAGCGAAT,0.0615
16,AACTTTAC,0.0985
17,ATGCACCA,-0.036
18,AGTCTTTC,-0.263
19,CCTCGGGA,-0.126
20,AACTACTC,0.0802
21,CACTCGGC,0.0205
22,GCTTCTCA,0.299

row,Sequence,PBM E-score
1,CCGGTAGG,0.0993
2,ATAAATGA,-0.119
3,CGCCTTTC,-0.0709
4,CGCGTCCA,0.245
5,GGATACCC,0.0354
6,AAGATGCA,0.0396
7,CCGAGTCC,-0.151
8,AATCCCAT,0.0407
9,GATCCCGC,0.186
10,CGAGATCG,-0.147
11,CCAGCGCC,0.232
12,AGACGAAA,-0.0121
13,TAATTGAA,0.228
14,GCGGCCTA,0.148
15,AAAATTAA,0.0776
16,CTTTCACA,-0.0812
17,AACAAGAG,0.0487
18,CATGCCAC,-0.109
19,AGCGGTCC,-0.0259
20,AATGCCTG,0.0531
